Experimental data as given in the supplement of paper PMC11417369.
± gives the standard deviation of the averaged measurements. This is one part of the list.

tested on: PfAP2-I AP2 domain 3 (GST-tagged); test: gcPBM binding intensity (ln(normalized median fluorescence intensity)); higher = stronger DNA binding
Summary of the method: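 Binding intensity is the highest Masliner-normalised natural-log median intensity over replicate spots in either probe orientation. To obtain it, GST-tagged P. falciparum DNA-binding domains made in E. coli were incubated for 1 h on an Agilent 4 × 180k array of primer-extended double-stranded 36-bp intergenic genomic probes plus negative controls. Detection used Alexa488 anti-GST antibody with scanning at 488 nm.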

| Sequence | gcPBM binding intensity (ln) |
| --- | --- |
| TCCCATTTATTATGGTGTACAATTAATTAAACATAA [XGTACX_site750] | 8.06 ± 0.12 |
| TATATTTATTCCTGTTGTACTTTATATTATTTTTTT [XGTACX_site1415] | 8.14 ± 0.47 |
| CAAAAACATACCTACACACACAATATGTATTTATAA [CACACA_site5862] | 7.82 ± 0.35 |
| AAATGAATATTCATAGTGCAATATATAAATGAAAAT | 11 ± 0.38 |
| TTTAATTATTAGTGTGCACACAACTATGAGTTTTTA [CACACA_site8997] | 9.65 ± 0.28 |
| AATTACATTCAATTCTGTACTAATAGTAATTCAAAA [XGTACX_site7419] | 7.88 ± 0.54 |
| ATTTGCAGTATTTCGGAACACACAAACATAAATATG [CACACA_site8726] | 8.05 ± 0.57 |
| TATAAAAAATTCTTCCTTATTTTATGATATATATAT [TGCATGCA_negctrl_site57] | 8.665 ± 0.078 |
| AAATATATTTCACGCACACACACCCCAAATAAATTT [CACACA_site3820] | 8.49 ± 0.58 |
| TATTCCTATAAAAAAACACACACATATAAATATATA [CACACA_site8727] | 7.58 ± 0.33 |
| AAGTATTTTTTTACATGTACATATATATATATATAT [XGTACX_site5065] | 9.4 ± 0.56 |
| AAATAGATAAGTAGGACACACATATATATATATTAA [CACACA_site1862] | 7.72 ± 0.54 |
| ATATTTCAAAATGAAAGTACATATAAAAATTATACA [XGTACX_site3787] | 7.5 ± 0.35 |
| TTTTTCATATGACACACACACAAAAATAATGTGGAA [CACACA_site7692] | 8.09 ± 0.33 |
| AAATGAACACGAAAGGAAAAAAAAATATATATATAT [CACACA_negctrl_site267] | 9.4 ± 0.16 |
| TCATTTTATTATTCTACACACTTATCTATAATTATA [CACACA_site34] | 8.12 ± 0.65 |
| ATAATTACATAGATTGGTACACATTTTTGATTGTAT [XGTACX_site3802] | 7.71 ± 0.44 |
| GTACAAATGATTAATCCTTTACTTATATATATATAT [XGTACX_negctrl_site138] | 9.06 ± 0.26 |
| TTAAAAATGTGTGTGCGTACATAATATTTCGAAAAA [XGTACX_site8197] | 8.38 ± 0.38 |
| CATTTTTTTTTATAAATACACACGTACGGGTGCATA [CACACA_site1569] | 8.54 ± 0.54 |
| TTCTGGCAAAATAACACACACATATATTTTATATAC [CACACA_site3242] | 8.6 ± 0.57 |
| GAACATTTACGCCCCACACACCTACCAACAAAAAAA [CACACA_site7746] | 8.99 ± 0.014 |
| TTCTTAAAAAAAAATAAAATAAAAAAAAAAATAAAA [CACACA_negctrl_site99] | 7.53 ± 0.42 |
| AAAAAAAAAAAAAACACACACACACGCATACAAAAT [CACACA_site6794] | 8.43 ± 0.39 |
| ATATTTTTCTTAAGTACACACTAAATAGAAACTAAA [CACACA_site4191] | 8.08 ± 0.3 |
